From PMC7679404
Results are given in words; binding and its absence hold for the method and conditions named. For some of these results: In cells and extracts the contact can be indirect. Some entries that bind do so weakly or less than the wild type. For some of these results: Tags and fused reporters may be left off the sequences shown.

T1: CROWDED NUCLEI 3 (CRWN3), yeast two-hybrid fusion (Arabidopsis thaliana) (UniProt Q9CA42)
T1 sequence: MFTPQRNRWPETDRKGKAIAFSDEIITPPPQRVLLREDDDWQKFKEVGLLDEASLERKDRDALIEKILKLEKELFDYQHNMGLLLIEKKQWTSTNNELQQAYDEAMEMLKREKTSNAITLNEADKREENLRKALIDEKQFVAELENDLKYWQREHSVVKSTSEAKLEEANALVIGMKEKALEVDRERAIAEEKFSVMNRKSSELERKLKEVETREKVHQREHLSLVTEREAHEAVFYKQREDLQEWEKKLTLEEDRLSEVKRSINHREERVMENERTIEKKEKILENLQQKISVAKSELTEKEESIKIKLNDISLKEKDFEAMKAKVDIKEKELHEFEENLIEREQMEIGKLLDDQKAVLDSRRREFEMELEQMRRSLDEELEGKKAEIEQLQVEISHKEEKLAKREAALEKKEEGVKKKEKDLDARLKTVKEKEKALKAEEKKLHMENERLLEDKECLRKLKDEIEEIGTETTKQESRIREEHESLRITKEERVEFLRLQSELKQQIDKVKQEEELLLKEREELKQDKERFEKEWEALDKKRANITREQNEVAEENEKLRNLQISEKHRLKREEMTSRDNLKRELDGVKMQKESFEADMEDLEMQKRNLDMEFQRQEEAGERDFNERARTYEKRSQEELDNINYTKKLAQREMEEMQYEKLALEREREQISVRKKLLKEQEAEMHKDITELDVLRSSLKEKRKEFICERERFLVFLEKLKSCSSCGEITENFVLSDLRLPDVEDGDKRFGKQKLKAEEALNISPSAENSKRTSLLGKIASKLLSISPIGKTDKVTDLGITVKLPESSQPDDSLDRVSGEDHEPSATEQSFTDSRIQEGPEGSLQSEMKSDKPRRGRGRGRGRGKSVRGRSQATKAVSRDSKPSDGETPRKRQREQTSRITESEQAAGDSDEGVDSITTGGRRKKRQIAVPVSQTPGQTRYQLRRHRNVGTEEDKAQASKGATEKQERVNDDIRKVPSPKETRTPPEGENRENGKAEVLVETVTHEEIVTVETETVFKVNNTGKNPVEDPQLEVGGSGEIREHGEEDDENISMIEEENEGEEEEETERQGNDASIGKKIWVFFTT

T2: CROWDED NUCLEI 3 (CRWN3), fluorescent protein-conjugated (co-immunoprecipitation) (Arabidopsis thaliana) (UniProt Q9CA42)
T2 sequence: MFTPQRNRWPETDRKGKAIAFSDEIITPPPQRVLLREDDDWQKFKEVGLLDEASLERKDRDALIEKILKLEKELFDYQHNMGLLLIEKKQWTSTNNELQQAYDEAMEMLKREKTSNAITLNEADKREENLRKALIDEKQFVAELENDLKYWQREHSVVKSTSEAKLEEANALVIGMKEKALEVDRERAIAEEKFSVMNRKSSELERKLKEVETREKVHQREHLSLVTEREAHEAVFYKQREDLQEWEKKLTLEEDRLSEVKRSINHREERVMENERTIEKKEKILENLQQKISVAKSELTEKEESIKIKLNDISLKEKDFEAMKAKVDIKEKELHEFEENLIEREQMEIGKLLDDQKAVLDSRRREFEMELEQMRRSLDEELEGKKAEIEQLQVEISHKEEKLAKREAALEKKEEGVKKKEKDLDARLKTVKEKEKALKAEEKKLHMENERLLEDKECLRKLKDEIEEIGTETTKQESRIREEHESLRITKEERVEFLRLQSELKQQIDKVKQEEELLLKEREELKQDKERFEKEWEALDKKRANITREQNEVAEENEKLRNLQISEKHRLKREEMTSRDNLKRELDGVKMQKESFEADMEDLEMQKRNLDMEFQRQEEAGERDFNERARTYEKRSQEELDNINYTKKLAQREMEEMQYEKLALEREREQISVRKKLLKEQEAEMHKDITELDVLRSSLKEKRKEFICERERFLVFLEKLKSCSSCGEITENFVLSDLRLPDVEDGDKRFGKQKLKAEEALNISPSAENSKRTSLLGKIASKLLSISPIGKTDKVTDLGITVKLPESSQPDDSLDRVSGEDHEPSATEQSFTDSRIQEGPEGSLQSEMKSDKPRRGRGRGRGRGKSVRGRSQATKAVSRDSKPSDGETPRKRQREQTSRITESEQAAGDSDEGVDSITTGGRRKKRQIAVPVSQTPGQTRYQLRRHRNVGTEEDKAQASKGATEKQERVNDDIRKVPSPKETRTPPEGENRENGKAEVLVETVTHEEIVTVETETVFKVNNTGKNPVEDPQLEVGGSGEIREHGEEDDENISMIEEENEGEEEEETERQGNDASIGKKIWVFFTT

T3: CROWDED NUCLEI 2 (CRWN2), fluorescent protein-conjugated (co-immunoprecipitation) (Arabidopsis thaliana) (UniProt Q9SAF6)
T3 sequence: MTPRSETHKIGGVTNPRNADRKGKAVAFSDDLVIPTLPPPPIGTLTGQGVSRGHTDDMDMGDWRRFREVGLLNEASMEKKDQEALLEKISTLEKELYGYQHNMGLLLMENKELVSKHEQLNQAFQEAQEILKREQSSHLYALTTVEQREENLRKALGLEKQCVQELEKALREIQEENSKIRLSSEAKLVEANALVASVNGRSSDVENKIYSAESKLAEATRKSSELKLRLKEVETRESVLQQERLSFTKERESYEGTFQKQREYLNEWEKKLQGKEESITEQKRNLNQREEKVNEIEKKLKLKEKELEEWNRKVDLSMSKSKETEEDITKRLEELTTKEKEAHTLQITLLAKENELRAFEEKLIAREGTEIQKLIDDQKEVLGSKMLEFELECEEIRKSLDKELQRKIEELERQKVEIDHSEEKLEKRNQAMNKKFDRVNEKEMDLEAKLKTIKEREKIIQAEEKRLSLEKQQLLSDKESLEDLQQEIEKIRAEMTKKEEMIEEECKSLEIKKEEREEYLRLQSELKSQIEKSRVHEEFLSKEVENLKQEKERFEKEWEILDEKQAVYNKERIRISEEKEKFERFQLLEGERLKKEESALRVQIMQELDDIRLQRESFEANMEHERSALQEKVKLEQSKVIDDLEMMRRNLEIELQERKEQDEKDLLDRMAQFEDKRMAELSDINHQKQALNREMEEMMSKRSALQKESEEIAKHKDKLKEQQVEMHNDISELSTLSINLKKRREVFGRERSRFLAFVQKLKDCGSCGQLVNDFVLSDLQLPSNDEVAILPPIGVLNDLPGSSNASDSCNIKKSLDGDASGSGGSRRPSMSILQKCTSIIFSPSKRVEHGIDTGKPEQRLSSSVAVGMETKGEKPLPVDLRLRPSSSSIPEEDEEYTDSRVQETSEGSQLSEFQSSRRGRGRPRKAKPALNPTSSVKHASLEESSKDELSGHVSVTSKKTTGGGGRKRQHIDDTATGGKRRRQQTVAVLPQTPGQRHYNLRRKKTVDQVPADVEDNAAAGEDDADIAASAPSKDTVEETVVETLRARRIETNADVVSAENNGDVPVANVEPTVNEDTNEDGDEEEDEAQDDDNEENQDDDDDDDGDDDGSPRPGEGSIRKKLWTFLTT


What was measured:
[1] = target: T1, CROWDED NUCLEI 3 (CRWN3), yeast two-hybrid fusion (Arabidopsis thaliana); experiment: two-hybrid; CRWN1-4 in pGADT7 (prey) and pGBKT7 (bait), Y2HGold yeast; growth on SD/-Leu/-Trp/-His
[2] = target: T2, CROWDED NUCLEI 3 (CRWN3), fluorescent protein-conjugated (co-immunoprecipitation) (Arabidopsis thaliana); experiment: co-IP; GFP- and tagRFP-conjugated CRWNs transiently expressed in Nicotiana benthamiana leaves; soluble lysate in µMACS lysis buffer; anti-GFP magnetic beads (µMACS GFP Isolation Kit), 4 °C, 30 min; western blot with anti-GFP and anti-tagRFP
[3] = target: T3, CROWDED NUCLEI 2 (CRWN2), fluorescent protein-conjugated (co-immunoprecipitation) (Arabidopsis thaliana); experiment: as above

binding [1]	binding [2]	binding [3]	Binder
binds	–	–	CROWDED NUCLEI 2 (CRWN2), yeast two-hybrid fusion (protein, UniProt Q9SAF6 1-1128) MTPRSETHKIGGVTNPRNADRKGKAVAFSDDLVIPTLPPPPIGTLTGQGVSRGHTDDMDMGDWRRFREVGLLNEASMEKKDQEALLEKISTLEKELYGYQHNMGLLLMENKELVSKHEQLNQAFQEAQEILKREQSSHLYALTTVEQREENLRKALGLEKQCVQELEKALREIQEENSKIRLSSEAKLVEANALVASVNGRSSDVENKIYSAESKLAEATRKSSELKLRLKEVETRESVLQQERLSFTKERESYEGTFQKQREYLNEWEKKLQGKEESITEQKRNLNQREEKVNEIEKKLKLKEKELEEWNRKVDLSMSKSKETEEDITKRLEELTTKEKEAHTLQITLLAKENELRAFEEKLIAREGTEIQKLIDDQKEVLGSKMLEFELECEEIRKSLDKELQRKIEELERQKVEIDHSEEKLEKRNQAMNKKFDRVNEKEMDLEAKLKTIKEREKIIQAEEKRLSLEKQQLLSDKESLEDLQQEIEKIRAEMTKKEEMIEEECKSLEIKKEEREEYLRLQSELKSQIEKSRVHEEFLSKEVENLKQEKERFEKEWEILDEKQAVYNKERIRISEEKEKFERFQLLEGERLKKEESALRVQIMQELDDIRLQRESFEANMEHERSALQEKVKLEQSKVIDDLEMMRRNLEIELQERKEQDEKDLLDRMAQFEDKRMAELSDINHQKQALNREMEEMMSKRSALQKESEEIAKHKDKLKEQQVEMHNDISELSTLSINLKKRREVFGRERSRFLAFVQKLKDCGSCGQLVNDFVLSDLQLPSNDEVAILPPIGVLNDLPGSSNASDSCNIKKSLDGDASGSGGSRRPSMSILQKCTSIIFSPSKRVEHGIDTGKPEQRLSSSVAVGMETKGEKPLPVDLRLRPSSSSIPEEDEEYTDSRVQETSEGSQLSEFQSSRRGRGRPRKAKPALNPTSSVKHASLEESSKDELSGHVSVTSKKTTGGGGRKRQHIDDTATGGKRRRQQTVAVLPQTPGQRHYNLRRKKTVDQVPADVEDNAAAGEDDADIAASAPSKDTVEETVVETLRARRIETNADVVSAENNGDVPVANVEPTVNEDTNEDGDEEEDEAQDDDNEENQDDDDDDDGDDDGSPRPGEGSIRKKLWTFLTT
–	binds	–	CROWDED NUCLEI 2 (CRWN2), fluorescent protein-conjugated (co-immunoprecipitation) (protein, UniProt Q9SAF6 1-1128) MTPRSETHKIGGVTNPRNADRKGKAVAFSDDLVIPTLPPPPIGTLTGQGVSRGHTDDMDMGDWRRFREVGLLNEASMEKKDQEALLEKISTLEKELYGYQHNMGLLLMENKELVSKHEQLNQAFQEAQEILKREQSSHLYALTTVEQREENLRKALGLEKQCVQELEKALREIQEENSKIRLSSEAKLVEANALVASVNGRSSDVENKIYSAESKLAEATRKSSELKLRLKEVETRESVLQQERLSFTKERESYEGTFQKQREYLNEWEKKLQGKEESITEQKRNLNQREEKVNEIEKKLKLKEKELEEWNRKVDLSMSKSKETEEDITKRLEELTTKEKEAHTLQITLLAKENELRAFEEKLIAREGTEIQKLIDDQKEVLGSKMLEFELECEEIRKSLDKELQRKIEELERQKVEIDHSEEKLEKRNQAMNKKFDRVNEKEMDLEAKLKTIKEREKIIQAEEKRLSLEKQQLLSDKESLEDLQQEIEKIRAEMTKKEEMIEEECKSLEIKKEEREEYLRLQSELKSQIEKSRVHEEFLSKEVENLKQEKERFEKEWEILDEKQAVYNKERIRISEEKEKFERFQLLEGERLKKEESALRVQIMQELDDIRLQRESFEANMEHERSALQEKVKLEQSKVIDDLEMMRRNLEIELQERKEQDEKDLLDRMAQFEDKRMAELSDINHQKQALNREMEEMMSKRSALQKESEEIAKHKDKLKEQQVEMHNDISELSTLSINLKKRREVFGRERSRFLAFVQKLKDCGSCGQLVNDFVLSDLQLPSNDEVAILPPIGVLNDLPGSSNASDSCNIKKSLDGDASGSGGSRRPSMSILQKCTSIIFSPSKRVEHGIDTGKPEQRLSSSVAVGMETKGEKPLPVDLRLRPSSSSIPEEDEEYTDSRVQETSEGSQLSEFQSSRRGRGRPRKAKPALNPTSSVKHASLEESSKDELSGHVSVTSKKTTGGGGRKRQHIDDTATGGKRRRQQTVAVLPQTPGQRHYNLRRKKTVDQVPADVEDNAAAGEDDADIAASAPSKDTVEETVVETLRARRIETNADVVSAENNGDVPVANVEPTVNEDTNEDGDEEEDEAQDDDNEENQDDDDDDDGDDDGSPRPGEGSIRKKLWTFLTT
–	no binding	no binding	CROWDED NUCLEI 4 (CRWN4), fluorescent protein-conjugated (co-immunoprecipitation) (protein, UniProt Q9FLH0 1-1010) MATSSRSERFPITPSTAATNRLTITPNSRVLKSPLTEEIMWKRLKDAGFDEQSIKNRDKAALIAYIAKLESEVYDYQHNMGLLLLEKNELSSQYEEIKASVDESDLTHMREKSAYVSALAEAKKREESLKKDVGIAKECISSLEKTLHEMRAECAETKVSAGSTMSEAHVMIEDALKKLADAEAKMRAAEALQAEANRYHRIAERKLKEVESREDDLTRRLASFKSECETKENEMVIERQTLNERRKSLQQEHERLLDAQVSLNQREDHIFARSQELAELEKGLDTAKTTFEEERKAFEDKKSNLEIALALCAKREEAVSERESSLLKKEQELLVAEEKIASKESELIQNVLANQEVILRKRKSDVEAELECKSKSVEVEIESKRRAWELREVDIKQREDLVGEKEHDLEVQSRALAEKEKDITEKSFNLDEKEKNLVATEEDINRKTTMLEDEKERLRKLDLELQQSLTSLEDKRKRVDSATQKLEALKSETSELSTLEMKLKEELDDLRAQKLEMLAEADRLKVEKAKFEAEWEHIDVKREELRKEAEYITRQREAFSMYLKDERDNIKEERDALRNQHKNDVESLNREREEFMNKMVEEHSEWLSKIQRERADFLLGIEMQKRELEYCIENKREELENSSRDREKAFEQEKKLEEERIQSLKEMAEKELEHVQVELKRLDAERLEIKLDRERREREWAELKDSVEELKVQREKLETQRHMLRAERDEIRHEIEELKKLENLKVALDDMSMAKMQLSNLERSWEKVSALKQKVVSRDDELDLQNGVSTVSNSEDGYNSSMERQNGLTPSSATPFSWIKRCTNLIFKTSPEKSTLMHHYEEEGGVPSEKLKLESSRREEKAYTEGLSIAVERLEAGRKRRGNTSGDETSEPSNNKKRKHDVTQKYSDEADTQSVISSPQNVPEDKHELPSSQTQTPSGMVVISETVKITRVTCETEVTNKVTTLDCSESPSEAGRKMGEETEDGDCNQTGINASETVIHNEAATEDICT
